The target in assay [1] is T1, endogenous UPF1 (human (endogenous in HEK293T)) (UniProt Q92900).
T1 sequence: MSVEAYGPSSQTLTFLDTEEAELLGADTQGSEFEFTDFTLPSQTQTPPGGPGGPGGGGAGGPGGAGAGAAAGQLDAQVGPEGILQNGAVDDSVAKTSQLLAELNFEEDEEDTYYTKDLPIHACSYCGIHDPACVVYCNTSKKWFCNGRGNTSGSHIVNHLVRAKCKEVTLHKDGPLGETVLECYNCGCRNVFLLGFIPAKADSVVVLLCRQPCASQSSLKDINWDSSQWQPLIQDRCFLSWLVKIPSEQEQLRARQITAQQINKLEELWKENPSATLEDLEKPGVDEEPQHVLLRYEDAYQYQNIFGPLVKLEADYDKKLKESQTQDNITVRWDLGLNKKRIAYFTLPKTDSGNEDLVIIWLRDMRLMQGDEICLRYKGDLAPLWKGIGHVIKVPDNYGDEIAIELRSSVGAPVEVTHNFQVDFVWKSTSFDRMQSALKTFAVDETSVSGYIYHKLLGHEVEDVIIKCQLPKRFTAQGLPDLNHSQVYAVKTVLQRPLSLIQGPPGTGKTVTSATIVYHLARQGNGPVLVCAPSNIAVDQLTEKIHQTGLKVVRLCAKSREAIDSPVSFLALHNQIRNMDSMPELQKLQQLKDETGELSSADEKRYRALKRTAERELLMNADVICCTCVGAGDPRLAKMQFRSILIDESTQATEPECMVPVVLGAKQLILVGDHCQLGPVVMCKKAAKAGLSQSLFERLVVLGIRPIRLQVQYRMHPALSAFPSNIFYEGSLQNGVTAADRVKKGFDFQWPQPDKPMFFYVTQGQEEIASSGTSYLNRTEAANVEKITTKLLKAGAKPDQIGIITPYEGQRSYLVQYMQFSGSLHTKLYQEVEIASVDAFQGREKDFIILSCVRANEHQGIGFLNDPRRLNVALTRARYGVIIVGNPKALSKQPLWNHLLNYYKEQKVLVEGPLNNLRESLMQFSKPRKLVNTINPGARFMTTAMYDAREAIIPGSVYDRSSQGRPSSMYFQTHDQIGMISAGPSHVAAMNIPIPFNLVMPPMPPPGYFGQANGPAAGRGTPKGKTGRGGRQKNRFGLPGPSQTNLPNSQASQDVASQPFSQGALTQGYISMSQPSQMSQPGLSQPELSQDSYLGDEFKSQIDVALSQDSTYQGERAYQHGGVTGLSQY
Description: co-IP; endogenous proteins immunoprecipitated from HEK293T cells (Figure S2C; endogenous UPF1 complexes from cells depleted of DHX34 or control, Figure 5D).

Chains of the proteins cited; added tags and fusions are not shown.
UniProt Q9HAU5: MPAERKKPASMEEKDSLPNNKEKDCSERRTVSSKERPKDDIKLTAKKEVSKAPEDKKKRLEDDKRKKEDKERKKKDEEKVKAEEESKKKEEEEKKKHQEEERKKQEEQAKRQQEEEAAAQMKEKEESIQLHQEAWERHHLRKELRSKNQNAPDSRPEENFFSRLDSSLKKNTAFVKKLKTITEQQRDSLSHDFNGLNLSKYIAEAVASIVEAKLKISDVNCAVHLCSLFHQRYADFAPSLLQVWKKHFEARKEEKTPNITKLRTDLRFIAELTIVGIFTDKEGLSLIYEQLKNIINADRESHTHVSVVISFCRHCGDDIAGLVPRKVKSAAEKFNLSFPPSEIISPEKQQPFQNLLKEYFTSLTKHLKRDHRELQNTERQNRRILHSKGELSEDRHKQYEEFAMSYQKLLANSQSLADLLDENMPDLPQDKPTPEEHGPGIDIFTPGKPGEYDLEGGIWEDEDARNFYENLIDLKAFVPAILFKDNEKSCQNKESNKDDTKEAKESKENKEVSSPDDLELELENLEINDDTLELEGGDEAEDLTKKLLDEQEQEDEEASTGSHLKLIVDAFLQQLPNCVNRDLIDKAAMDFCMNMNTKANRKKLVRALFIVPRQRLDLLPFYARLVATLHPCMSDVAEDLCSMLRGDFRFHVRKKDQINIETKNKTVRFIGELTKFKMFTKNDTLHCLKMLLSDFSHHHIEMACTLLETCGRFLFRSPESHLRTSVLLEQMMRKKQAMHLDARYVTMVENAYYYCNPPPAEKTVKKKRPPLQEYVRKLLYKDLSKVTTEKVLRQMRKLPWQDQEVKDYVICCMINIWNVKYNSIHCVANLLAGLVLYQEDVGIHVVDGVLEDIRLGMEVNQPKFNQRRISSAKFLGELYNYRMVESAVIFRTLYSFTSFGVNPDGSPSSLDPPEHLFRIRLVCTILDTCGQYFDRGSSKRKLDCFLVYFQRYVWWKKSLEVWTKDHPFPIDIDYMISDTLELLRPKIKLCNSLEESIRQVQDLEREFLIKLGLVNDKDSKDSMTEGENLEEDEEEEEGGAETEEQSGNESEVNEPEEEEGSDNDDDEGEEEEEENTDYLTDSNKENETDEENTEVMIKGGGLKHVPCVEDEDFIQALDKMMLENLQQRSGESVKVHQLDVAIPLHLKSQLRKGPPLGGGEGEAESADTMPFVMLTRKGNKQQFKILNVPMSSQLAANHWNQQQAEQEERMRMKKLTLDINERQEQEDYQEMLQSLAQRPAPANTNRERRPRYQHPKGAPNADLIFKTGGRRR

Assay [2] addresses T2, FLAG-UPF1 (wild-type) (human) (UniProt Q92900).
T2 sequence: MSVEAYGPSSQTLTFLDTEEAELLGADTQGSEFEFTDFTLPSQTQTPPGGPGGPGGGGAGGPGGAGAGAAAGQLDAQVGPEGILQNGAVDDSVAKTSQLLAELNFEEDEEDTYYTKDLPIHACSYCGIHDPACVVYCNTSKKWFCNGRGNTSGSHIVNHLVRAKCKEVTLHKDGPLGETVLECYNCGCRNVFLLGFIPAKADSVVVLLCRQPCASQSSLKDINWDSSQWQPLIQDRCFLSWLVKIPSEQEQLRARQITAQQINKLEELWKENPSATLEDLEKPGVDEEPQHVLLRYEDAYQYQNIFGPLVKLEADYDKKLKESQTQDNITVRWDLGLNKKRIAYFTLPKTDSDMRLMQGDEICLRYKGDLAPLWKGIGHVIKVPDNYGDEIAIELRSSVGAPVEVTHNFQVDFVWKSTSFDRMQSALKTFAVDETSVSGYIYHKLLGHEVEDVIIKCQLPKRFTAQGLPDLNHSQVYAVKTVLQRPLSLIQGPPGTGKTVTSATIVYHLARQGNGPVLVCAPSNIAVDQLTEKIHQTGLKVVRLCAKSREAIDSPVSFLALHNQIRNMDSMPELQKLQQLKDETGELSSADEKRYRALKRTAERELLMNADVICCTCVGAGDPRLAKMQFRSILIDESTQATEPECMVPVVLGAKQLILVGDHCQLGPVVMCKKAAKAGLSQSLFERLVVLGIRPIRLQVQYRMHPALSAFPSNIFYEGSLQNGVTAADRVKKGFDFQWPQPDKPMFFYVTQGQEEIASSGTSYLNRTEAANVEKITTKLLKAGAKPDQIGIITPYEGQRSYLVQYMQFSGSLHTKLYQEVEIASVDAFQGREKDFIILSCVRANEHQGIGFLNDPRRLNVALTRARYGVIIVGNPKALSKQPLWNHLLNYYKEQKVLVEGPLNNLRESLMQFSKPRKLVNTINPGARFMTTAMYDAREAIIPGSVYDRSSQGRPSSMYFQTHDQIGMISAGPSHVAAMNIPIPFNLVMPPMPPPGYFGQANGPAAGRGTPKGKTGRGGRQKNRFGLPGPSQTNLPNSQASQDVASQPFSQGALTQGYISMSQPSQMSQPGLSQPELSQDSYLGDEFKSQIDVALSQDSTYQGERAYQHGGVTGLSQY
Put plainly: co-IP; anti-FLAG IP of transiently transfected FLAG-UPF1 (wild-type or mutants) from HEK293T lysate; endogenous partners by western blot; in the absence or presence of RNase A (Figures 2B, S2B); cells also depleted of DHX34 by shRNA, rescued with T7-DHX34, or cotransfected with T7-DHX34. (In general: In western blotting, separated proteins are transferred to a membrane and probed.)

Assay [3] has as its target T3, FLAG-UPF1 LECY181-184VRVD (human) (UniProt Q92900).
T3 sequence: T2 sequence with L181V, E182R, C183V, Y184D
Description: co-IP; anti-FLAG IP from HEK293T cells cotransfected with FLAG-UPF1 (wild-type or mutants) and T7-DHX34 (wild-type or ATPase mutants); RNase A in Figure 3C; T7-DHX34 by western blot.

The next assay concerns the target T4, FLAG-UPF1 C126S (human) (UniProt Q92900).
T4 sequence: T2 sequence with C126S
The assay is described as above.

Substitutions are numbered along the chain they refer to. Numbers in names are those of the source. These are yes or no findings as the source states them, for the method shown. Binding seen in cells or lysates may run through a third protein. Some results given as binding are weak or reduced against the parent protein; the word gives no strength. For part of these data: Where a sequence is shown, tags or fusion partners need not be part of it.

Regarding “endogenous UPF2 (from UniProt Q9HAU5 1-1272)”, the binding entry in assay [1] and in assay [2] was “binds” in each case.

B1: T7-DHX34 K191S (protein, UniProt Q14147 1-1143)
chain: MPPPRTREGRDRRDHHRAPSEEEALEKWDWNCPETRRLLEDAFFREEDYIRQGSEECQKFWTFFERLQRFQNLKTSRKEEKDPGQPKHSIPALADLPRTYDPRYRINLSVLGPATRGSQGLGRHLPAERVAEFRRALLHYLDFGQKQAFGRLAKLQRERAALPIAQYGNRILQTLKEHQVVVVAGDTGCGSSTQVPQYLLAAGFSHVACTQPRRIACISLAKRVGFESLSQYGSQVGYQIRFESTRSAATKIVFLTVGLLLRQIQREPSLPQYEVLIVDEVHERHLHNDFLLGVLQRLLPTRPDLKVILMSATINISLFSSYFSNAPVVQVPGRLFPITVVYQPQEAEPTTSKSEKLDPRPFLRVLESIDHKYPPEERGDLLVFLSGMAEISAVLEAAQTYASHTQRWVVLPLHSALSVADQDKVFDVAPPGVRKCILSTNIAETSVTIDGIRFVVDSGKVKEMSYDPQAKLQRLQEFWISQASAEQRKGRAGRTGPGVCFRLYAESDYDAFAPYPVPEIRRVALDSLVLQMKSMSVGDPRTFPFIEPPPPASLETAILYLRDQGALDSSEALTPIGSLLAQLPVDVVIGKMLILGSMFSLVEPVLTIAAALSVQSPFTRSAQSSPECAAARRPLESDQGDPFTLFNVFNAWVQVKSERSRNSRKWCRRRGIEEHRLYEMANLRRQFKELLEDHGLLAGAQAAQVGDSYSRLQQRRERRALHQLKRQHEEGAGRRRKVLRLQEEQDGGSSDEDRAGPAPPGASDGVDIQDVKFKLRHDLAQLQAAASSAQDLSREQLALLKLVLGRGLYPQLAVPDAFNSSRKDSDQIFHTQAKQGAVLHPTCVFAGSPEVLHAQELEASNCDGSRDDKDKMSSKHQLLSFVSLLETNKPYLVNCVRIPALQSLLLFSRSLDTNGDCSRLVADGWLELQLADSESAIRLLAASLRLRARWESALDRQLAHQAQQQLEEEEEDTPVSPKEVATLSKELLQFTASKIPYSLRRLTGLEVQNMYVGPQTIPATPHLPGLFGSSTLSPHPTKGGYAVTDFLTYNCLTNDTDLYSDCLRTFWTCPHCGLHAPLTPLERIAHENTCPQAPQDGPPGAEEAALETLQKTSVLQRPYHCEACGKDFLFTPTEVLRHRKQHV
For B1, the binding entry (in assay [3]; in the assay with FLAG-UPF1 C126S (human)) was “binds” throughout.

B2: T7-DHX34 D279A (protein, UniProt Q14147 1-1143)
chain: B1 chain with S191K, D279A
Consider B2, for which the binding result (in assay [3]; with FLAG-UPF1 C126S (human)) was “binds” in each case.

(Values after PMC4534575, “The RNA Helicase DHX34 Activates NMD by Promoting a Transition from the Surveillance to the Decay-Inducing Complex” (Cell Reports, 2014).)
